Results on 93 sequences are retold here after paper PMC10726135.

The other results are listed elsewhere or left out. At the low end of the ranking, values are background and their order means little. The protein was read in a cell extract, so binding may be indirect.

The target in this assay is T1, HNF4alpha8 (COS-7 nuclear extract) (UniProt P41235-5).
T1 sequence: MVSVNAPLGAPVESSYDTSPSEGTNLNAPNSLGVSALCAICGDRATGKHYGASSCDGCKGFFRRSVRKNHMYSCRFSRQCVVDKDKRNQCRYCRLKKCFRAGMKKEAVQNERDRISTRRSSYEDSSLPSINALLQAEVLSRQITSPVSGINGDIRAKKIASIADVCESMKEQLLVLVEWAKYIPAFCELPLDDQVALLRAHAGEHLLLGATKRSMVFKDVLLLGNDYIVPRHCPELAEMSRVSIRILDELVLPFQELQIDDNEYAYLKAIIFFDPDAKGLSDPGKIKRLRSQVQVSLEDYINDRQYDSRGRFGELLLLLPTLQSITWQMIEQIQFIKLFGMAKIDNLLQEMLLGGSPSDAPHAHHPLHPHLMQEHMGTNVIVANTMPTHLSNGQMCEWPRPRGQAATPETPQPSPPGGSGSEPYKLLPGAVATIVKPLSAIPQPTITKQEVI
Put plainly: protein-binding microarray. Particulars: COS-7 nuclear extract on double-stranded Agilent 4x180k PBM; binding buffer, salt, pH and temperature not given; high values mean tight binding; double strand, one strand shown; sequences stand for … in …GCCTAGGGAGATTAGAGTATCGGTCGA
GGGCTCTCAGAATCTGCCGATCACTGGCCC: the binding signal (log2 normalized intensity) is -1.22.
On to TTTTGCCTTGCATCAGAATCTGGACAGTGT, for which the binding signal (log2 normalized intensity) was 1.41.
Consider AGCTGCAAAGGCACAGATCATATGGCCCAC, for which the binding signal (log2 normalized intensity) was -1.42.
In the case of TAATCTCAAAGTGTCAGTCCAGAGTTTGTG it was 1.32; in that of CATGCACCTGCGGATAATCAAAGGTTGGTC, 2.16; in that of TTCAAAGGCTCCCCTAATCCCTGTGACATT, 2.32.
Take CTAAAGGCTGTGTCGGTATAAGTTCTACAT: the binding signal (log2 normalized intensity) came to 0.312.
For AAGGCAGGAGAATCGCTTGAACCCAGGGGA, the binding signal (log2 normalized intensity) was -1.15.
TTCTGAGAGTGGCAAGCAGGAGCTGGCCTG: the binding signal (log2 normalized intensity) was -1.32.
Consider AGAAAGGTCTAAAAGTAGCTGTTGGAATTT, for which the binding signal (log2 normalized intensity) was found to be 2.16.
For TCCACATGTGGGGAAACTGGACTGTAATTT, the binding signal (log2 normalized intensity) is 2.24.
Consider AGCAATGTTTCTTGTCCAGGGACTTTGAAC, for which the binding signal (log2 normalized intensity) worked out at 6.55.
In the case of GCAGAGGCTGCAGAGGTTTCGCAAGGACGT it was -1.18; in that of GACATAAAATTAAAGCGGACGGGCTGCGGA, -1.33.
Regarding CCACCACAAACCCTTCATCCAGCTGTGCTT, the binding signal (log2 normalized intensity) is -1.19.
Take TGACCCTTGAACAATGTGGGGGTCGGGGCA: the binding signal (log2 normalized intensity) was found to be 2.97.
GTTTTACAAACACAATGGAAGGCTGTATGT: the binding signal (log2 normalized intensity) worked out at 0.119.
As to TGAAACAGTGGGCAATATGAAGGGGAAAAA, the binding signal (log2 normalized intensity) is -1.48.
As for TATTCAGTCCCCCATCCCAGAGGTCAAACT, the figure is 5.57; as for TACACAAGTAGAATGAAAGCGGCTCAGGAA, -1.22.
AGTGGGAGGTGGAAGTGGCAGATTAGAGAC: the binding signal (log2 normalized intensity) is -1.2.
Regarding GTGGAGGATTTGGGTGATGTTTGGTTAAGA, the binding signal (log2 normalized intensity) worked out at 1.1.
For CCTCCGCTCCGCCGGACCGGCCAAACTGGT, the binding signal (log2 normalized intensity) is -1.18.
As for CCTTTCATGTTGAACGTCTTCAGAAACTAA, the figure is 0.814; as for CTGTGTTATGCTTGCAGGTGTCAGGGGTCA, 4.84.
Take CCATTGTTATCTGATCAAATTCCACACCCC: the binding signal (log2 normalized intensity) came to 3.2.
In the case of GCACAACATACTTGGAGACAGTCACTCCCA, the binding signal (log2 normalized intensity) is -1.42.
As for ACTGGTTTTTCTTGGGTGTATGGGTATAGG, the figure is 2.21; as for AGCCTAGGGTGAGGTGTTCGGGGGACGGAG, -1.2; as for TGGAATGTCTCTGGTTGAAGGGGAGGTTAT, 0.848.
With AATGCCAGGCATTTGCGATAATAGAGATTG, the binding signal (log2 normalized intensity) is -1.4.
Turning to GAAGGATAGAGAGTTGGGAGGGAACAGTCC, the binding signal (log2 normalized intensity) is -0.498.
AGCTGTGTCTACCCTTTTGCCCTTTGAGCT: the binding signal (log2 normalized intensity) stood at 6.67.
As to GTCCTGTGGGGCCCAGAGCCAGGTGTGCTG, the binding signal (log2 normalized intensity) is -1.16.
As for GCATCTGGACCATTGCTGACCTTGCCTCTG, the binding signal (log2 normalized intensity) stood at 2.32.
In the case of AAGCTTTCTTGGGCAAGAAAGGGGTCAGCA it was 3.02; in that of CAAGCTCTAGCATCCCTCTCTTGCTGGGCC, -1.32; in that of GGACACAAAGTGGACAGTGTCTGACTAGAG, -0.393.
As to TCCAGCTCTGTGACTTTACCTGAAATGAGA, the binding signal (log2 normalized intensity) is -1.27.
As for CCTTCGCTCGGCTCGCTCTCCCTGCTGGCC, the figure is -1.17.
In the case of TTTACTTTTTAAACACCTAGAGTTACAGTC, the binding signal (log2 normalized intensity) was -0.226.
As for GCACTTGATGTTCCCCCTCCCTGGACTCCT, the figure is 4.71; as for ACACGAAACAAGTAGCAGTTCAAAAGTTCA, 2.36.
On to GGCAGGTCTCTCTCATTCACACCCTCAGCT, for which the binding signal (log2 normalized intensity) was -1.36.
In the case of GAGGGAGCCGCTGTGTGGGAAGAGGGCCTA, the binding signal (log2 normalized intensity) was -1.41.
In the case of AGTGGAGAAATAACATTAATGGAAATGCCT it was -1.3.
As for TAAAACATCTTTGAAGAGCACAGGGTCAGC, the figure is 2.05; as for TTCGAATATTTGTGATTTGAAATTTGTCCT, 2.76.
In the case of TGTGATCTTGGGTAAGCCACTGAACTTTCA it was 3.1; in that of AAGGGTTCATCTGACTGGAAGAGCCTGCAA, -1.25; in that of GTGGGTAATTAACTCCCCCTGCCCCCAGGT, 5.38.
Take ATGAGATAAGGTTCTGATAAAGTATCTTCA: the binding signal (log2 normalized intensity) was -1.29.
Regarding CCATCAGTGGACTTTGACCTTGTTTTCAAT, the binding signal (log2 normalized intensity) came out at 9.54.
Consider GCCGGGAAAACCCGGAGCGGAGCATCCCTC, for which the binding signal (log2 normalized intensity) was -1.35.
On to TGCTCCCAAAGCAAACCTCCCCAGCCCAGG, for which the binding signal (log2 normalized intensity) was found to be 3.01.
As to CAGGACCTGCCATTTTTTCAAACACCTGGG, the binding signal (log2 normalized intensity) is -1.3.
On to AATTTCAAATTTGCACCTGCCTTTAGGCAT, for which the binding signal (log2 normalized intensity) was -1.35.
In the case of AGCTTAGGGTTCAAACTCCAGCTCTGATAC it was 3.47; in that of TTGCTTGTGAATGAAAGAGACTAGTATGTA, 0.132; in that of GGCGCGCCTGCCCTTCGCTCCCCGACCTCC, 4.2.
As for CAGCAGACTCAGAAAAATATGTGGACTTCA, the figure is 2.99; as for TAAAGTTCATTGCTTTGAGCATGAGAGTTC, 0.887.
As for GTGGAGCAGCTTTCTCTGCACACACTCACA, the figure is -1.34; as for CTGAGCTAAGATAACCATCAAATCCTCGGA, -1.32.
For ATATAAAAACTAACCATACTGAGTGTTGGT, the binding signal (log2 normalized intensity) was -0.252.
TGTGTGTGTGTGTGTGTGTGTGTGTATGCC: the binding signal (log2 normalized intensity) is 3.1.
As to AACGAGACCTTAGCCCTGAACAAACAGCTT, the binding signal (log2 normalized intensity) is -1.42.
Regarding CTGAATCAAGGTTTCTTTCCCTGGGGTCAA, the binding signal (log2 normalized intensity) came to 4.4.
GAGCCAAGGGAGCACAACCCGGGCGCACAA: the binding signal (log2 normalized intensity) is -1.29.
TTGCAACCTTTGCCCTGTTGTCTTTGCCCA: the binding signal (log2 normalized intensity) was found to be 4.71.
Consider TGATCCCTGACTCATAGCTCCAGAGCCACC, for which the binding signal (log2 normalized intensity) is -1.48.
As to ACTACTTATCTCCAAGACCCTTCATAGCTT, the binding signal (log2 normalized intensity) was -1.07.
CCTTGCTGATAAAACAGCATGCGGTAAAGA: the binding signal (log2 normalized intensity) is -1.27.
TTGATAAACAGATAACTGGGGGCAAAGGTT: the binding signal (log2 normalized intensity) turned out to be 7.27.
In the case of CAGCTAAAGCCTGCTCGTTGGGGGTCACCC, the binding signal (log2 normalized intensity) is 4.15.
In the case of CTCGCCTGGCTCCCCACGTGGCAATCATTC it was -1.27.
In the case of AACTTTCAAGATGAAGCAAGAGTCCAAATT, the binding signal (log2 normalized intensity) is 3.41.
In the case of CTGTTTCCTACTGACCTCCGACCCCACGGA, the binding signal (log2 normalized intensity) was found to be 5.54.
As for CAAGATAACAAGGCAAACTTTATCAAGACT, the binding signal (log2 normalized intensity) was -1.45.
For GGCCTCTCTGCAAATTTGCCTTGTCCTTAG, the binding signal (log2 normalized intensity) came out at 1.36.
In the case of GTCCAGGGCCCTTACCATCAATCACATTGT it was -1.24; in that of GCAAAGGTCACAAGAGGTGCTGTGTGCCTG, 1.71; in that of TCACACAATCAGTGTGTTGACATTTGAACC, 4.54.
In the case of AGGTTCAGTGAAGTAGTGTGTATGAAAGGC, the binding signal (log2 normalized intensity) is 0.793.
Regarding TCTCCAAGGTTATTATATTGTGGGTTCTTG, the binding signal (log2 normalized intensity) was found to be 1.82.
As for CTCCTATCCTCTGATCCCCAGGTCATAAGA, the figure is 2.05; as for CTGACCCTAGATGAGATAAGGTTCTGATAA, -1.23; as for GTGATAAAACCCATGGACCTGACACCCGCT, -1.28.
Consider TCTTGGGTAAGCCACTGAACTTTCACTGCC, for which the binding signal (log2 normalized intensity) turned out to be 1.72.
Turning to CCAAAGTCCGCCACTAGCAACAGCTGCAGT, the binding signal (log2 normalized intensity) is -1.39.
Consider AGTGCAATGCCTAAACCAGGATCCAGTCCT, for which the binding signal (log2 normalized intensity) was -1.42.
CCACACTCTCCCCACCCCCAAATCCCCTTC: the binding signal (log2 normalized intensity) was 5.86.
Turning to TCCCCGTCACCCTCCCCGCCACCCCCCAGA, the binding signal (log2 normalized intensity) was 7.31.
